Measured values as given in PubChem BioAssay (NCATS).
The shares of active, inactive and inconclusive entries below differ from those in the screen. Potencies of inconclusive entries are left out as doubtful fits. Active and inactive are the calls of the source. Calls follow the shape of the dose curve; as a rule, active = well fitted curve in either direction with a large enough effect (not every such curve was filed as active); inconclusive = small, poorly fitted or top-dose-only effect, or another doubt; inactive = flat fitted curve, though single readings scatter.

target: Mitogen-activated protein kinase 10 (Mus musculus) (UniProt Q61831); assay: JNK3 AlphaScreen Assay (AID 530); conditions: JNK3 lysate, c-Jun phosphorylation; activity change, negative = inhibition: at 57.1 µM (top of the series);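 also: kinase came from lysate of stimulated human HepG2 cells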
Excerpt: NIH Chemical Genomics Center [NCGC]
NIH Molecular Libraries Screening Centers Network [MLSCN]
The c-jun N-terminal kinase (JNK) family are serine/threonine protein kinases that phosphorylate c-jun, a component of the transcription factor […] (AP-1). JNK kinases are members of the mitogen-activated protein kinase family including the extracellular regulated kinases and p38 kinases. Three JNK genes (JNK 1, 2, and 3) have been identified in humans so far. JNK1 and JNK2 have a broad distribution and JNK3 is primarily found in neuronal tissues and cardiac myocytes.
JNK3 has been under consideration as a target for the treatment of neurodegenerative disorders. […] JNK pathway is also involved in pathological process in a mouse model of Parkinson's disease (Xia et al., 2001).
Given these potential tissue distributions and links to neuroprotection, JNK3 inhibitors should provide useful investigational tools to study the role of this kinase in several diseases including, arthritis, stroke, myocardial infarction, ischemic injury and Parkinson's disease.
A homogeneous AlphaScreen is developed to measure the activity of JNK3. AlphaScreen is a two bead-based proximity-dependent chemical energy transfer luminescent assay platform. The phosphorylation of a biotinylated c-jun substrate by JNK3 can be detected with an antibody raised against phosphorylated c-jun. This process brings streptavidin donor beads and Protein-A acceptor beads to within a proximity range of <200 nm, and subsequently lead a chemical luminescent reaction upon exciting donor beads with 680 nm laser excitation light. Inhibition of JNK3 activity by small molecules and subsequent decrease in the antibody binding to biotinylated c-jun could attenuate or abolish this chemical luminescent reaction.
Yang DD, Kuan CY, Whitmarsh AJ, Rincon M, Zheng TS, Davis RJ, Rakic P and Flavell RA (1997) Absence of excitotoxicity-induced apoptosis in the hippocampus of mice lacking the Jnk3 gene. Nature 389:865-870. [PMID: 9349820]
Herdegen T, Claret FX, Kallunki T, Martin-Villalba A, Winter C, Hunter T, and Karin M (1998) Lasting N-terminal phosphorylation of c-Jun and activation of c-Jun N-terminal kinases after neuronal injury. J.Neurosci. 18:5124-5135. [PMID: 9651196]
Xia XG, Harding T, Weller M, Bieneman A, Uney JB and Schulz JB (2001) Gene transfer of the JNK interacting protein-1 protects dopaminergic neurons in the MPTP model of Parkinson's disease. Proc.Natl.Acad.Sci.U.S.A. 98:10433-10438.
NCGC Assay Protocol Summary:
GST-cJun (1-79) (Stratagene, La Jolla CA, #205145) was biotnylated by PerkinElmer (PerkinElmer-BioSignalInc. Montreal, Canada) and was detectable by the streptavidin Donor beads. Anti-(phospho)cJun (Ser73) antibody was from UpState (Charlottesvilles, VA, #06-659). JNK3-containing lysates were generated from HepG2 cells and pre-activated by interleukin1-beta and tumor necrosis factor alpha. All reagents were stored at -20 C before using. Phosphorylated biotinylated-GST-cJun was recognized by Anti-(phospho)cJun (Ser73) antibody and this process brings acceptor and donor beads together. Therefore JNK3 phosphorylation of cJun can be measured by Alpha reading by EnVision (PerkinElmer, Boston, MA).
The composition of kinase buffer was (in mM) 20 tris- HCl (pH 7.6) 10 MgCl2, 1 DTT, and 0.1 Na3VO4 and 0.01% Tween-20. Beads were diluted in detection buffer containing (in mM) 20 tris-HCl (pH 7.7), 20 NaCl and 80 EDTA and 0.3% BSA. The assay was performed at room temperature. All compounds were screened as titrations from 0.6 nM to 46 uM final concentration. The assay was performed in 1536-well format (white solid bottom and untreated) as follows:
Sequence,Parameter,Value,Description
1,Reagent,3 uL,Biotin-GST-cJun, Anti-(phospho)cJun and pre-activated JNK3-containing lysates
2,Compound,23 nL,Final concentration was 0.6nM to 46uM
3,Time,15 minutes,Room Temperature
4,Reagent,1 uL,ATP final concentration 10uM
6,Reagent,0.5 uL,2ng/well bead mixture
[…]
% is scaled to controls: 0 for no effect and ±100 for the full control effect; potency is read from the fitted curve at half-maximal effect; tags tell the direction and shape of the fitted curve.

SMILES	Potency	activity change, negative = inhibition
CCN(Cc1ccncc1)C(=O)[C@@H](CO)c1ccccc1	inconclusive [activator, full curve, poor fit]	
COc1cccc(-c2cc(NCc3ccc(OC)cc3OC)ncn2)c1	inactive	
CO[C@]1(C2=NCCN2)COc2ccccc2O1	inconclusive [activator, partial curve, poor fit]	
O=C(Nc1cccc(F)c1)N1CCC2(CC1)CCN(C(=O)c1cc(C(F)(F)F)cc(C(F)(F)F)c1)CC2	inconclusive [inhibitor, partial curve]	
COc1ccccc1CNc1ncnc2ccc(-c3cccc(NS(C)(=O)=O)c3)cc12	inactive	
Cc1ccccc1-c1ccc2ncnc(N3CCNCC3)c2c1	inactive	
COc1cccc(Cn2c(=O)c(-c3ccccc3)nc3cnc(N(C)C)nc32)c1	inconclusive [activator, full curve]	
COc1ccccc1CNc1ncnc2ccc(-c3ccc(N(C)C)cc3)cc12	inconclusive [inhibitor, partial curve]	
C=CCn1c(=O)c2c(nc(-c3ccc(S(=O)(=O)O)cc3)n2C)n(C)c1=O		inconclusive: 5.69%
CN(Cc1ccco1)c1nc(-c2ccccc2C(F)(F)F)nc2ccccc12	inactive	
O=C1c2c(O)ccc([N+](=O)[O-])c2C(=O)c2c([N+](=O)[O-])ccc(O)c21	inconclusive [inhibitor, partial curve]	
COc1ccccc1CN1CCC2(CC1)CCN(S(=O)(=O)c1ccccc1)CC2	inactive	
CCSC(=N)N	inconclusive [activator, partial curve, poor fit] and inactive	
NCCCCN=C(N)N		inconclusive: -4.93%
COc1cccc2c1C(=O)c1c(O)c3c(c(O)c1C2=O)C[C@](O)(C(=O)CO)C[C@H]3O[C@@H]1C[C@H](N)[C@H](O)[C@H](C)O1	inconclusive [inhibitor, partial curve]	
N[C@H](C(=O)O)c1cc(O)cc(O)c1	inconclusive [activator, full curve, poor fit]	
COc1cc(-c2ccc(N=Nc3ccc4c(S(=O)(=O)O)cc(S(=O)(=O)O)c(N)c4c3O)c(OC)c2)ccc1N=Nc1ccc2c(S(=O)(=O)O)cc(S(=O)(=O)O)c(N)c2c1O	inconclusive [inhibitor, partial curve]	inconclusive: -147%
CCCCCN=c1ccn(Cc2ccccc2)c2ccccc12		inconclusive: -36.5%
CN(C)C(=O)c1ccc(-c2nc(NCc3cccs3)c3ccccc3n2)cc1	inactive	
Cc1cnc(CNc2ncnc3ccc(-c4ccccc4C)cc23)cn1	inconclusive [inhibitor, single point]	

SMILES	Potency	activity change, negative = inhibition
COc1ccc(OC)c2c(=S)c3ccccc3[nH]c12	inconclusive [inhibitor, full curve]	
COc1ccc(-c2nc3cnc(Nc4ccccc4)nc3n(Cc3cccs3)c2=O)cc1	inactive	
O=c1c(-c2ccccc2)nc2cnc(N3CCNCC3)nc2n1Cc1cccs1	inconclusive [activator, single point]	
c1ccc(CNc2nc(-c3cccnc3)nc3ccccc23)cc1	inactive	
N#Cc1ccc(CN2CCCC3(CCN(S(=O)(=O)c4ccccc4)CC3)C2)cc1	inactive	
COc1ccc(/C=C\C(=O)Nc2ccccc2C(=O)O)cc1OC	inconclusive [inhibitor, partial curve]	
C[C@@](N)(C(=O)O)c1ccc(C(=O)O)cc1	inconclusive [activator, partial curve, poor fit]	
CC1(C)CC(=O)C([C@H]2C3=C(CC(C)(C)CC3=O)Oc3ccccc32)C(=O)C1	inactive	
CN1[C@H](CC(=O)c2ccccc2)CCC[C@H]1C[C@H](O)c1ccccc1	inconclusive [activator, full curve]	
Cc1noc(C)c1C(=O)N1CCC2(CCN(Cc3cc(C(F)(F)F)cc(C(F)(F)F)c3)CC2)CC1	inconclusive [activator, full curve]	
Oc1ccc([C@@H]2CNCCc3c2cc(O)c(O)c3Cl)cc1	inconclusive [inhibitor, partial curve, poor fit]	
COc1cccc(-c2cc(NCCc3c[nH]c4ccc(OC)cc34)ncn2)c1	inconclusive [inhibitor, partial curve]	
O=c1ccc2c(OCCCCc3ccccc3)c3ccoc3cc2o1		inconclusive: -5.41%
O=c1c(CCc2ccccc2)nc2cnc(Oc3cccc(Cl)c3)nc2n1C[C@H]1CCCO1	inconclusive [activator, single point]	
Cc1noc(C)c1-c1ccc2ncnc(N3CCC(C(=O)O)CC3)c2c1	inactive	
C=CCN1CCN(c2nc3ccccc3nc2C#N)CC1		inconclusive: -11.3%
O=c1c(-c2ccccc2)nc2cnc(N3CCNCC3)nc2n1Cc1ccc(F)cc1	inconclusive [activator, partial curve]	
COc1cccc(Cn2c(=O)c(-c3ccc(F)c(F)c3)nc3cncnc32)c1	inconclusive [inhibitor, partial curve]	
COCCn1c(=O)c(-c2ccc(Cl)cc2)nc2cnc(Oc3ccccc3)nc21	inactive	
